Here are results for 49 compounds from PubChem BioAssay AID1508642 (National Center for Advancing Translational Sciences (NCATS), 2021).

Among all 43,000 compounds or so, about 200 (0.47%) were called active. Not shown: some 12% with an inconclusive outcome. Calls follow the shape of the dose curve; as a rule, active = well fitted cell-killing curve with a large enough effect; inconclusive = small, poorly fitted or top-dose-only effect, or effect the other way; inactive = flat fitted curve, though single readings scatter. The list shows a part of the results.
% is scaled to controls: 0 for no effect and ±100 for the full control effect; potency is read from the fitted curve at half-maximal effect.

The test can be described thus: Cell viability qHTS assay in S16 Pmp22-F2sN cells. Also: nearly all actives have a fitted effect of over 65% in size. The following applies: S16 Pmp22-F2sN Schwann cells (luciferase reporters placed in the Pmp22 gene) viability, CellTiter-Glo, 24 h; series mostly up to 57.5 µM; activity change, negative = cytotoxicity: at the top concentration. The essentials: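 S16 Schwann cells carrying the Pmp22-F2sN reporter, seeded in 1536-well format, were exposed to library compounds for 24 h at 37C. Viability was read as CellTiter-Glo luminescence after 15 min at room temperature.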
For `CCOC(=O)N1CCC(NC(=O)c2ccc3c(c2)N(Cc2ccccc2)C(=O)c2ccccc2S3(=O)=O)CC1`, the “activity change, negative = cytotoxicity” value is inactive: -9.62%.

For `Cc1ccc(C)c(NC(=O)CSc2nc(=O)n(CCN3CCOCC3)c3c2CCC3)c1`, the “activity change, negative = cytotoxicity” value is inactive: 4.39%.

Consider `CCC(=O)N1c2ccccc2CC1C(=O)NCCCN1CCN(c2cccc(Cl)c2)CC1` (centres undefined), for which the “activity change, negative = cytotoxicity” value is inactive: 2.95%.

Turning to `CC(C)Cn1cc(NC(=O)NCc2ccc(Cl)cc2)c2ccccc2c1=O`, the “activity change, negative = cytotoxicity” value was inactive: -0.438%.

For the compound `COc1ccc(C(=O)CN2CCN(S(=O)(=O)c3ccc(F)cc3)CC2)cc1`, the “activity change, negative = cytotoxicity” value was inactive: -7.94%.

Regarding `COCCCNc1nc2c(c(=O)n(Cc3ccccc3)c(=O)n2C)n1C`, the “activity change, negative = cytotoxicity” value was inactive: 12.4%.

Take `Cc1ccc2c(c1)C(=O)OC(C(=O)Nc1ccc(C(=O)O)cc1)C2` (centres undefined): the “activity change, negative = cytotoxicity” value was inactive: 8.87%.

In the case of `O=C(Nc1ccc(Cl)cc1)c1ccc2oc(=O)n(Cc3ccccc3)c2c1`, the “activity change, negative = cytotoxicity” value was inactive: 25.6%.

Turning to `CCOc1ccc(Nc2sc(C(=O)c3ccc(F)cc3)c(N)c2S(=O)(=O)c2ccc(C)cc2)cc1`, the “activity change, negative = cytotoxicity” value is inactive: 19.1%.

For the compound `Cc1oc2ncn(CC(C)C)c(=O)c2c1C(=O)NCc1cccc(Cl)c1`, the “activity change, negative = cytotoxicity” value is inactive: -16.6%.

Turning to `CCN(C(=O)CSc1nnc(-c2cc3occc3n2C)n1-c1ccccc1C)c1ccccc1`, the “activity change, negative = cytotoxicity” value was inactive: 0.509%.

For the compound `O=C(CN1C(=O)COc2ccc(S(=O)(=O)N3CCOCC3)cc21)NCc1ccc(Cl)cc1`, the “activity change, negative = cytotoxicity” value is inactive: -2.86%.

Take `CS(=O)(=O)c1ncc(Cl)c(C(=O)N2CCN(c3cccc(Cl)c3)CC2)n1`: the Potency is active: 3.16 µM.

As for `COc1ccc(Cl)cc1NC(=O)c1ccc(CN2C(=O)CCn3nc(C)cc32)cc1`, the “activity change, negative = cytotoxicity” value was inactive: -19.1%.

Take `COc1cc(Cl)c(C)cc1NC(=O)CNC(=O)Cn1ccc2ccccc2c1=O`: the “activity change, negative = cytotoxicity” value is inactive: 5.61%.

On to `CC(C)Oc1ccc(CNC(=O)c2cc3cccc4c3n2CC(C)S4)cc1` (centres undefined), for which the “activity change, negative = cytotoxicity” value was inactive: 2.05%.

In the case of `CCc1ccc(-c2nc3c(c(SCc4ccccc4)n2)Cc2c(CO)cnc(C)c2O3)cc1`, the “activity change, negative = cytotoxicity” value is inactive: -5.62%.

For the compound `Cc1ccc(Cn2c(C(=O)Nc3ccc(Cl)cc3)cc3sccc32)cc1`, the “activity change, negative = cytotoxicity” value was inactive: -9.23%.

Take `CSc1ncc(C(=O)NCc2ccc(F)cc2)c(-c2ccccc2)n1`: the “activity change, negative = cytotoxicity” value is inactive: 9.68%.

On to `CCCCN(CC)CCCNC(=O)Cn1nc(CC)n2c(cc3sccc32)c1=O`, for which the “activity change, negative = cytotoxicity” value was inactive: -10.3%.

For the compound `COc1ccc2c(c1)c1c(c(=O)n(CCc3ccccc3)c(=O)n1Cc1cccc(C)c1)n2C`, the “activity change, negative = cytotoxicity” value was inactive: 10%.

As to `CCOC(=O)c1ccc(NC(=O)CCCn2nc(C)c3sc4ccccc4c3c2=O)cc1`, the “activity change, negative = cytotoxicity” value was inactive: -2.8%.

In the case of `CCOc1ccc(OCCOCCn2c(-c3ccc(Cl)cc3)nc3ccccc3c2=O)cc1`, the “activity change, negative = cytotoxicity” value was inactive: 8.86%.

Turning to `Cc1cccc(-c2nc(SCCCOc3cc(C)c(Cl)c(C)c3)n3[nH]c(=O)cc3n2)c1`, the “activity change, negative = cytotoxicity” value was inactive: 5.17%.

For `COc1ccc(Nc2ncnc3c2cnn3-c2cc(Cl)ccc2C)cc1OC`, the “activity change, negative = cytotoxicity” value was inactive: -6.68%.

Turning to `O=C(Cc1ccc(-c2ccccc2)cc1)NCCS(=O)(=O)N1CCN(c2cccc(Cl)c2)CC1`, the “activity change, negative = cytotoxicity” value was inactive: 3.24%.

In the case of `CCCc1oc2ccc(NS(=O)(=O)c3ccc(OCC)cc3)cc2c1C(=O)OCC`, the “activity change, negative = cytotoxicity” value was inactive: -26.9%.

On to `COC(=O)CC(=O)CSc1nc2cc(C(=O)NC(C)C)ccc2c(=O)n1CCc1ccccc1`, for which the “activity change, negative = cytotoxicity” value is inactive: 4.43%.

With `Cc1ccc(C(=O)OC2=C(C(=O)c3ccccc3)N(C)S(=O)(=O)c3ccccc32)cc1`, the “activity change, negative = cytotoxicity” value is inactive: -2.43%.

Consider `NC(=O)CN1C(=O)C2(SCC(=O)N2c2cccc(F)c2)c2ccccc21` (centres undefined), for which the “activity change, negative = cytotoxicity” value was inactive: -3.2%.

As for `COc1ccc(C2C(C(=O)Nc3ccc(C)cc3C)=C(C)Nc3nc(SC)nn32)cc1OC` (centres undefined), the “activity change, negative = cytotoxicity” value was inactive: 3.95%.

Regarding `CC(C)C(=O)Nc1nnc(S(=O)(=O)N(C)Cc2ccc(F)cc2)s1`, the “activity change, negative = cytotoxicity” value is inactive: 17.6%.

For `CCOc1ccccc1NC(=O)C1CCCN(c2ncnc3onc(-c4ccc(F)cc4)c23)C1` (centres undefined), the “activity change, negative = cytotoxicity” value was inactive: -23.5%.

With `COc1ccc(NC(=O)C2CCN(S(=O)(=O)c3cn(C)cn3)CC2)cc1Cl`, the “activity change, negative = cytotoxicity” value is inactive: 2.78%.

Consider `CC(=O)OCc1cnc(C)c2oc(=O)c(C(=O)Nc3cc(F)ccc3C)cc12`, for which the “activity change, negative = cytotoxicity” value is inactive: -8.49%.

`O=C(c1ccc([N+](=O)[O-])cc1)N(Cc1ccco1)c1ccccn1`: the “activity change, negative = cytotoxicity” value was inactive: 5.55%.

On to `COc1ccc(S(=O)(=O)Nc2ccc3c(c2)sc(=O)n3C)cc1Cl`, for which the “activity change, negative = cytotoxicity” value is inactive: -23.1%.

As to `Cc1cc(C)cc(NC(=O)c2cn3c4c(ccc(Cl)c4c2=O)OC(C)C3)c1` (centres undefined), the “activity change, negative = cytotoxicity” value is inactive: -2.18%.

As for `CCCCn1c(=O)c2oc3ccccc3c2n(Cc2ccc(OC)cc2)c1=O`, the “activity change, negative = cytotoxicity” value is inactive: 6.13%.

As for `Cc1ccc(-c2nnn3c2nc(NCCc2ccccc2)c2ccccc23)cc1`, the “activity change, negative = cytotoxicity” value was inactive: 15.5%.

Turning to `CN(c1ncnc2c1c(-c1ccccc1)cn2-c1cccc(Cl)c1)C1CCCCC1`, the “activity change, negative = cytotoxicity” value was inactive: 1.66%.

Take `Cc1cc2c(cc1S(=O)(=O)CCC(=O)N(C)C1CCCCC1)OCC(=O)N2`: the “activity change, negative = cytotoxicity” value is inactive: 5.52%.

Turning to `COCCN(Cc1ccco1)C(=O)Cn1ncc2c([nH]c3ccccc32)c1=O`, the “activity change, negative = cytotoxicity” value was inactive: 0.904%.

For the compound `Cc1ccc(C)c(C(=O)CSc2nc(-c3ccccc3)nc3c2CCCC3)c1`, the “activity change, negative = cytotoxicity” value is inactive: 8.49%.

Consider `Cc1c(Cl)cccc1NC(=O)N1CCC(CN2CCOCC2)CC1`, for which the “activity change, negative = cytotoxicity” value was inactive: 17.8%.

Turning to `Cc1cccc(-n2c(=O)c3c(c4cc(C)ccc4n3C)n(C)c2=O)c1`, the “activity change, negative = cytotoxicity” value is inactive: 13.5%.

Regarding `CCC(=O)N1c2ccccc2CC1C(=O)N1CCN(c2cccc(OC)c2)CC1` (centres undefined), the “activity change, negative = cytotoxicity” value is inactive: 2.76%.

As for `CCc1ccc(NC(=O)Cn2ccn(-c3ccc(OC)cc3)c(=O)c2=O)cc1`, the “activity change, negative = cytotoxicity” value is inactive: 4.15%.

As to `Cc1ccc(N(C)C(=O)CC(C)S(=O)(=O)c2ccc3c(c2)NC(=O)CO3)cc1` (centres undefined), the “activity change, negative = cytotoxicity” value is inactive: -1.05%.
